Measured values taken from PubChem BioAssay (NCI).
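Growth conditions: 96-well plates. Treatment: test compound, 48 hours, 5 concentrations. Analysis: linear interpolation between bracketing concentrations; unreached endpoints set to highest concentration. TGI: total growth inhibition.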 Not every entry of the source has a single result; some have several. This is not the full list of results. There may be further records. Records of one sample usually come from different ranges of test concentrations, which the source does not state; a value can be the end of its range. Marks such as (2×) say how often a value occurs here. *1 amine or outer side, *2 acyl side, *3 side chain or, on linkers, in order; H or OH if unused. Where a SMILES comes first, the peptide text is derived from it. Bridges are numbered along the chain shown (N, C = ends). Roman numbers before positions name the chains, in order. [ ]: non-standard residue; d: D form. Actinocin(9to1) = Cc1c2oc3c(C)ccc(C(=O)[*:1])c3nc-2c(C(=O)[*:2])c(N)c1=O; aThr = C[C@H](O)[C@H](N)C(=O)O; NMeV = CN[C@H](C(=O)O)C(C)C; Sar = CNCC(=O)O

Legend:
Test in all cases: NCI anticancer screen, dose series, 48 h
786-0 renal = test system: 786-0 renal
A498 renal = test system: A498 renal
A549 NSCLC = test system: A549 NSCLC
ACHN renal = test system: ACHN renal
BT-549 breast = test system: BT-549 breast
CAKI-1 renal = test system: CAKI-1 renal
CCRF-CEM leukemia = test system: CCRF-CEM leukemia
COLO 205 colon = test system: COLO 205 colon
DU-145 prostate = test system: DU-145 prostate
EKVX NSCLC = test system: EKVX NSCLC
HCC-2998 colon = test system: HCC-2998 colon
HCT-116 colon = test system: HCT-116 colon
HCT-15 colon = test system: HCT-15 colon
HL-60(TB) leukemia = test system: HL-60(TB) leukemia
HOP-62 NSCLC = test system: HOP-62 NSCLC
HOP-92 NSCLC = test system: HOP-92 NSCLC
HT29 colon = test system: HT29 colon
IGROV1 ovarian = test system: IGROV1 ovarian
K-562 leukemia = test system: K-562 leukemia
KM12 colon = test system: KM12 colon
LOX IMVI melanoma = test system: LOX IMVI melanoma
M14 melanoma = test system: M14 melanoma
MALME-3M melanoma = test system: MALME-3M melanoma
MDA-MB-231 breast = test system: MDA-MB-231 breast
MDA-MB-435 = test system: MDA-MB-435
MDA-N = test system: MDA-N
MOLT-4 leukemia = test system: MOLT-4 leukemia
NCI-H226 lung = test system: NCI-H226 lung
NCI-H23 lung = test system: NCI-H23 lung
NCI-H460 lung = test system: NCI-H460 lung
NCI-H522 lung = test system: NCI-H522 lung
NCI/ADR-RES ovarian = test system: NCI/ADR-RES ovarian
OVCAR-3 ovarian = test system: OVCAR-3 ovarian
OVCAR-4 ovarian = test system: OVCAR-4 ovarian
OVCAR-5 ovarian = test system: OVCAR-5 ovarian
OVCAR-8 ovarian = test system: OVCAR-8 ovarian
PC-3 prostate = test system: PC-3 prostate
RPMI-8226 leukemia = test system: RPMI-8226 leukemia
RXF 393 renal = test system: RXF 393 renal
SF-268 CNS = test system: SF-268 CNS
SF-295 CNS = test system: SF-295 CNS
SF-539 CNS = test system: SF-539 CNS
SK-MEL-2 melanoma = test system: SK-MEL-2 melanoma
SK-MEL-28 melanoma = test system: SK-MEL-28 melanoma
SK-MEL-5 melanoma = test system: SK-MEL-5 melanoma
SK-OV-3 ovarian = test system: SK-OV-3 ovarian
SN12C renal = test system: SN12C renal
SNB-19 CNS = test system: SNB-19 CNS
SR leukemia = test system: SR leukemia
SW-620 colon = test system: SW-620 colon
TK-10 renal = test system: TK-10 renal
U251 CNS = test system: U251 CNS
UACC-257 melanoma = test system: UACC-257 melanoma
UACC-62 melanoma = test system: UACC-62 melanoma
UO-31 renal = test system: UO-31 renal

Cc1c2oc3c(C)ccc(C(=O)N[C@@H]4C(=O)N[C@H](C(C)C)C(=O)N5CCC[C@H]5C(=O)N(C)CC(=O)N(C)[C@@H](C(C)C)C(=O)O[C@H]4C)c3nc-2c(C(=O)N[C@@H]2C(=O)N[C@H](C(C)C)C(=O)N3CCC[C@H]3C(=O)N(C)CC(=O)N(C)[C@@H](C(C)C)C(=O)O[C@H]2C)c(N)c1=O (I: [aThr][dV]P[Sar][NMeV] / II: [aThr][dV]P[Sar][NMeV]; ester I:1-I:C, II:1-II:C; linker I:N-II:N via Actinocin(9to1))
TGI (786-0 renal): 25 nM, 180 nM [1 test] and 425 nM [mean of 10 tests] and 232 nM [mean of 2 tests] and 46.8 nM [mean of 4 tests] and 137 nM [mean of 60 tests]
TGI (A498 renal): 0.0744, 56.4, 18.6, 4.83, 9.98 nM
TGI (A549 NSCLC): 25 nM [1 test] and 250 nM, 12.7 µM [mean of 2 tests] and 1.38 µM [mean of 33 tests] and 183 nM [mean of 63 tests]
TGI (ACHN renal): 25 nM, 28.3 nM [1 test] and 515 nM [mean of 12 tests] and 26.8 nM [mean of 2 tests] and 401 nM [mean of 3 tests] and 139 nM [mean of 64 tests]
TGI (BT-549 breast): 65.3, 20.2, 39.6, 3.01 nM
TGI (CAKI-1 renal): 1.62 nM [1 test] and 250 nM [mean of 2 tests] and 189 nM [mean of 3 tests] and 169 nM [mean of 35 tests] and 103 nM [mean of 54 tests]
TGI (CCRF-CEM leukemia): 0.00645, 24.6, 120, 11.9, 35.4, 284, 42.1 nM
TGI (COLO 205 colon): 3.57 nM, < 11.6 nM, 12.4 nM, 17.9 nM, 3.75 nM, 9.59 nM
TGI (DU-145 prostate): 21.2, 178, 65.2, 201, 870 nM
TGI (EKVX NSCLC): 25, 93.4, 118 (2×), 159, 98.7, 179 nM
TGI (HCC-2998 colon): 42.2 nM, 9.96 nM, 23.6 nM [1 test] and 21 nM [mean of 3 tests] and 20.9 nM [mean of 40 tests] and 23.4 nM [mean of 63 tests]
TGI (HCT-116 colon): 25 nM, 9.51 nM [1 test] and 102 nM [mean of 32 tests] and 235 nM [mean of 8 tests]
TGI (HCT-15 colon): 25, 204, 250, 846, 880, 212 nM
TGI (HL-60(TB) leukemia): 4.23, 23.8, 71.7, 33.5, 57, 21 nM
TGI (HOP-62 NSCLC): 25 nM, 90.8 nM, 24.9 nM, 20 nM, 16.3 nM, < 28.7 nM
TGI (HOP-92 NSCLC): 0.0152, 90.1, 36.6, 9.35, 399, 36.1, 29.9 nM
TGI (HT29 colon): 25, 88.5, 145, 323 nM
TGI (IGROV1 ovarian): 25 nM, 186 nM, 71.4 nM, 416 nM, 722 nM, 7.87 µM
TGI (K-562 leukemia): 0.0025, 13.1, 148, 250, 79.6, 490, 130 nM
TGI (KM12 colon): 25, 71, 35.8, 69.9, 19.4, 74.2 nM
TGI (LOX IMVI melanoma): 0.00969, 2.55, 23.9, 1.72, 35.7 nM
TGI (M14 melanoma): 25 nM, 65.2 nM, 39.5 nM, 75.1 nM, 28.5 nM, 50.5 nM, < 14.9 nM
TGI (MALME-3M melanoma): 1.06 nM, 19.9 nM, 15.3 nM, 21.6 nM, 10.1 nM, 13.4 nM, < 11.6 nM
TGI (MDA-MB-231 breast): 25, 92.4, 152, 23.2 nM
TGI (MDA-MB-435): 0.655, 17.6, 7.76 (2×), 16.2 nM
TGI (MDA-N): 3.38, 48.4, 9.69, 57.8 nM
TGI (MOLT-4 leukemia): 0.0025, 18, 22.3, 6.93, 12, 49.3, 60.2 nM
TGI (NCI-H226 lung): 25 nM, 60.1 nM, 16.4 nM, 10.7 nM, 12.5 nM, 10.3 nM, < 20.5 nM
TGI (NCI-H23 lung): 25 nM, 31.7 nM, 16.6 nM, 48.5 nM, 18.2 nM, < 12 nM, 10.1 nM
TGI (NCI-H460 lung): 25, 2.44, 40.8, 39 nM
TGI (NCI-H522 lung): 0.00564, 2.68, 6.07, 3.86, 2.58, 2.78 nM
TGI (NCI/ADR-RES ovarian): 25 nM, 220 nM, 250 nM, 855 nM, 1.68 µM, 4.27 µM
TGI (OVCAR-3 ovarian): 25, 51.1, 39.9, 50.5, 10.1, 26.8 nM
TGI (OVCAR-4 ovarian): 79.5 nM, 222 nM, 215 nM, 124 nM, < 30.6 nM
TGI (OVCAR-5 ovarian): 46.5, 30.8, 205, 43.7 nM
TGI (OVCAR-8 ovarian): 25, 107, 250, 365, 213 nM
TGI (PC-3 prostate): 10.4, 85.6, 201, 692, 79.4 nM
TGI (RPMI-8226 leukemia): 5.59, 4.85, 46.8, 2.06, 4.23, 64.1, 18 nM
TGI (RXF 393 renal): 4.76, 13.8, 8.97, 1.69, 6.83 nM
TGI (SF-268 CNS): 25, 19.7, 90.7, 73.7, 95.6, 165, 43.2 nM
TGI (SF-295 CNS): 17.7, 77.2, 156, 40.9, 100, 68.7 nM
TGI (SF-539 CNS): 0.0202, 15.6, 11.3, 7.6, 14.7, 9.36 nM
TGI (SK-MEL-2 melanoma): 0.267, 3.69, 5.06, 7.59, 2.34, 3.71 nM
TGI (SK-MEL-28 melanoma): 24.3, 15.2, 4.73, 14.7 nM
TGI (SK-MEL-5 melanoma): 0.29, 9.7, 9.64, 9.53, 5.86 nM
TGI (SK-OV-3 ovarian): 204 nM, 250 nM, 739 nM, 4.85 µM
TGI (SN12C renal): 25 nM, 238 nM, 250 nM, 861 nM, 3.11 µM
TGI (SNB-19 CNS): 25 nM, 157 nM, 258 nM, 1.18 µM, 5.94 µM
TGI (SR leukemia): 0.0541, 25, 35.9, 3.1, 31.7, 11.4 nM
TGI (SW-620 colon): 5.27, 132, 19.4, 196, 458 nM
TGI (TK-10 renal): 25 nM, 217 nM, 40.8 nM, 65 nM, 1.62 µM, 2.17 µM
TGI (U251 CNS): 25 nM, 184 nM, 944 nM, 381 nM, 2.12 µM
TGI (UACC-257 melanoma): 25 nM, 27.9 nM, 22.2 nM, 67.7 nM, 16.7 nM, 13.4 nM, < 15.1 nM
TGI (UACC-62 melanoma): 3.28, 6.17, 29.6, 2.1, 3.03 nM
TGI (UO-31 renal): 17.4, 66.8, 89.8, 5.49, 80.9, 177, 32.3 nM
